# Measured values taken from paper PMC12136788.
# This is one part of the list.
# T1: UNK ZnF1-3 (human, UniProt Q9C0B0 31-174)
# T1 sequence: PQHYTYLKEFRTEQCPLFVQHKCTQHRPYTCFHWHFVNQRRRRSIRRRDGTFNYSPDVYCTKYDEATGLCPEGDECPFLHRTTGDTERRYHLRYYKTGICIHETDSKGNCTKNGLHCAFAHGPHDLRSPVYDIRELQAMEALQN
# B1: chr2:27436100:27436101:+_ENSG00000138085_ENST00000606999|hu_mus|FALSE|FALSE (ssRNA)
# RNA: GGGAGUUCUACAGUCCGACGAUCGAUGGUGCCCUUCUGAUUCAGGCAGCAUCGGGCCUGCAUUAGCUUCGAUGUAUCCUCACAGUAAGCAGCCACUCUGGACAAAUUGUGCAUACCUCCCGGACACAGGGUGCAUAUCUCAGGCAACAGAGGAUUGAGCAUCA
# B2: chr9:111179681:111179682:+_ENSMUSG00000046785_ENSMUST00000060711|mus_mus|motif|central (ssRNA)
# RNA: GGGAGUUCUACAGUCCGACGAUCGGACUUAACACUAGAGAGCUGAUUUUUGAGUACACCUAGGUUUGAAUCUUGACAUUACGGCGGGUUUACUAGGGUAAAUUACAGUCUGUUUUCUUAACAACAUUCACAUAAUAUUUGAACCAACAGAGGAUUGAGCAUCA
# B3: chr19:33076771:33076772:+_ENSG00000105185_ENST00000590247|hu_hu|FALSE|FALSE (ssRNA)
# RNA: GGGAGUUCUACAGUCCGACGAUCUGCCAUCUGUAUAAGGUAAUUCUCUACUGCUUUAGUUUUUUCAGGCUUUACAAGUGCUAAGUUACUUAACCUGGCCCGGGCCGACUGAUCCAGAACUUGGGCUAAGAUACUGUUUCUCAUCAACAGAGGAUUGAGCAUCA
# B4: chr10:33190432:33190433:-_ENSG00000150093_ENST00000302278|hu_mus|hu_hu_hu_mus_True|68_88 (ssRNA)
# RNA: GGGAGUUCUACAGUCCGACGAUCUACAUUUUCCAAACCUGCAUGUGAGUAAAACCAUGGCCACAGAGCCCUAAAGCUACCCUACUGUGACUAAGAUGCUGCUGCUGUGAGCUUGGUGUUGCAAAAUCCGCCUGAGUAGGAUUCCAACAGAGGAUUGAGCAUCA
# B5: chr16:94690093:94690094:+_ENSMUSG00000040785_ENSMUST00000117648|mus_hu|mus_mus_mus_hu_True|58_98 (ssRNA)
# RNA: GGGAGUUCUACAGUCCGACGAUCGGGCUGGGAUGACAGCAGACAGCCCUCGAUUCCAGGGGGAAAAAGUCUUAGUCAAUACUAAUUAAAAAGUGUUAAUGAUUUUUGAAAAUCAGAUUACAUCUAUAAAAGAUGAAAAGCAAACAACAGAGGAUUGAGCAUCA
# B6: chr5:152452566:152452567:-_ENSMUSG00000033970_ENSMUST00000038131|mus_hu|motif|central (ssRNA)
# RNA: GGGAGUUCUACAGUCCGACGAUCUUCACGUAGAAUACACAUAAUUCUUGUCUUUUUUCCAGCACCUGAUGGUCCGUACACGGACAGAUGAGGAAAGUCACCACACUGCACCAGGUUCCGCAGCUGGGCCGCCUGCUCCUUGUGCAACAGAGGAUUGAGCAUCA
# B7: chr1:39494447:39494448:+_ENSG00000168653_ENST00000372967|hu_mus|hu_hu_hu_mus_False|1_78 (ssRNA)
# RNA: GGGAGUUCUACAGUCCGACGAUCGCACCGAGCGGCGUUCUUAUAGGGCUGUUCUGCACUCUGGAUUAUAAAGUGCCGGUCCAGGCUGAUGCCCAGCUUUUUCUGUAUGUCAAGGAAAGGCAUGGCUCUGCAGUGCCCCCUUGACAACAGAGGAUUGAGCAUCA
# B8: chr16:22092171:22092172:+_ENSG00000185716_ENST00000542527|hu_mus|FALSE|FALSE (ssRNA)
# RNA: GGGAGUUCUACAGUCCGACGAUCCCGUUUAGACAUUCGUCAGCCUGGUAAACAGACUUUGCCAGCAAACAGAAGUCCUACUAUUGUGAAGAAAAUCGAUAAGACAAAAAGUACAUAUGAUGACCCAACUACUGUGUUGUUGGGCAACAGAGGAUUGAGCAUCA
# B9: chr8:117878989:117878990:-_ENSG00000164754_ENST00000297338|hu_hu|hu_hu_hu_mus_True|8_38 (ssRNA)
# RNA: GGGAGUUCUACAGUCCGACGAUCCCAGAGGCCCUCGUUUACUGAGGACAAAAUGUGCGUAGAACAUUUUUCUUAUUUGCUAUGAAAUAAGAAGAAAACCUUGCUCUGGCGGGGAGCCGGGAGGGGUUGGGUGGCCCGGGAGGGCAACAGAGGAUUGAGCAUCA
# B10: 34873808_34873928_1232_3pUTR_ENSMUSG00000037503_ENSMUST00000047534|mouse|control|control (ssRNA)
# RNA: GGGAGUUCUACAGUCCGACGAUCUCCCUUGUACAAGUGUAACUGAGGCUCAGCGUACAUCGCAGAGGUGCGUGAGGGACAGGACAGGCUGUGAACGUGGUCCAGUCCUUCGGGUUUUGCAUAUGAUGGUUUUGCAUCAGUCACCAACAGAGGAUUGAGCAUCA
# B11: chr7:7679991:7679992:-_ENSG00000106399_ENST00000396682|hu_hu|hu_hu_hu_mus_False|38_58 (ssRNA)
# RNA: GGGAGUUCUACAGUCCGACGAUCUGGGAUGAAUCUUUUCCAGCUUCCCCACGAAGCACACGGGCCGGUCGAUAUACUGAGCUAGCAUGCUGGCGUUGAUGCGCGACUUGGGGAGCUGCAUUAUGUCCUCCAUGAUUCUGCCGCCAACAGAGGAUUGAGCAUCA
# B12: chr7:133502204:133502205:+_ENSG00000131558_ENST00000253861|hu_mus|FALSE|FALSE (ssRNA)
# RNA: GGGAGUUCUACAGUCCGACGAUCGGUGUCUGCAUUAGCCAGGAUCUUCAAGGGGUCUGAGGUUUUGGUGACGCCUUCAAUCUCCUUGUUGAUCUCAGCCAAGACCUGAUUAAGGAAGAUGCUCUUGAUAUACACGGUAAGAAACAACAGAGGAUUGAGCAUCA
# B13: chr2:217001844:217001845:+_ENSG00000079246_ENST00000392132|hu_hu|hu_hu_hu_mus_False|58_58 (ssRNA)
# RNA: GGGAGUUCUACAGUCCGACGAUCACCAACUUGAGGAUUAGAUCUUUUGUCAUAAGCAUAUCGGACGAUGGCGACCAUGUCUAAGUCAUCCAAAGCAUGAACGAGAGAGGAAAGGGCAACAGCUGCCGCCUCAUCAUCCUUUGCCAACAGAGGAUUGAGCAUCA
# B14: chr13:22070289:22070290:-_ENSG00000165487_ENST00000382374|hu_mus|FALSE|FALSE (ssRNA)
# RNA: GGGAGUUCUACAGUCCGACGAUCAGCAAAGUCUUCCAAAUGCGUUGUAAAAUGGCAAAAGGACUUGAACUCAUCCAAACUAAUGCUCUCUCCUACUGACAACUUUUCUCUCACGUUUCUCCAGUAAAUAUCUUUAUUUUCAGUCAACAGAGGAUUGAGCAUCA
# B15: chr10:33190432:33190433:-_ENSG00000150093_ENST00000302278|hu_mus|hu_hu_hu_mus_True|38_98 (ssRNA)
# RNA: GGGAGUUCUACAGUCCGACGAUCUACAUUUUCCAAACCUGCACAUGAAUAAAACCCUGGCCACAGAGCCCCAAAACUACCCUACUGUGACUAAGAUAAUUGCUACUUGAGCUUGGUGUUGCAAAAUCCGCCUGAGUAGGAUUCCAACAGAGGAUUGAGCAUCA
# B16: chr2:42509997:42509998:+_ENSG00000143924_ENST00000318522|hu_mus|hu_hu_hu_mus_True|48_78 (ssRNA)
# RNA: GGGAGUUCUACAGUCCGACGAUCUCGCUGAGUCCUCUCCUCAUAAUUAAACAGGACUACUACUGAUGCGAUAAAAUAAACUAUCUCCCCGGUCGGAAGCAGGUAUACAUUCGCUCUACAGUCCUUUCCUCGAUAACCGUAUACCAACAGAGGAUUGAGCAUCA
# B17: chr2:15768762:15768763:+_ENSG00000079785_ENST00000233084|hu_mus|FALSE|FALSE (ssRNA)
# RNA: GGGAGUUCUACAGUCCGACGAUCAGGCAGGGUGACGUUGAUCACAUAAGGAACGCCAUGGAUAUCAAUCCCUCUAGCAGCUACAUCUGUGCAAAUCAAGAAUCUUACGUCUCCUUUCUUAAAUCGUUCCAAGUUUUGCUUUCUCAACAGAGGAUUGAGCAUCA
# B18: chr18:35732517:35732518:+_ENSMUSG00000037236_ENSMUST00000166793|mus_hu|motif|central (ssRNA)
# RNA: GGGAGUUCUACAGUCCGACGAUCUAUAGAGCACAGAUGGGGAUAACCCUUCGGUAAGAGUCCAUGGAAGUCUUCAAUAUUGCGGCUUGGAGGAGCGCCUCUCUUUUUCUCAAAGAGAGAUCUCUCUUGUAAGGGGCCAGGACCCAACAGAGGAUUGAGCAUCA
# B19: 49511034_49520437_724_CDS_ENSG00000101126_ENST00000396029|human|control|control (ssRNA)
# RNA: GGGAGUUCUACAGUCCGACGAUCUUUUGUCCGAUAGUCCUGGUUUUUCGUAAGUGAUGGGUCCCACAGUCCUACAUCCUCCCAUGUAGUGUUUUUCAAAUAAAAGUCAUUAGGUUCAAAUUGUUUAAAAUCUUCUAUAUGUUCCAACAGAGGAUUGAGCAUCA
# B20: chr17:27717376:27717377:-_ENSMUSG00000024213_ENSMUST00000025050|mus_hu|FALSE|FALSE (ssRNA)
# RNA: GGGAGUUCUACAGUCCGACGAUCUAUAGGACAAAUUAUUGGAAGUUUUCAUCUCAUACUGGUAUCUUUUAAUAAAAAAAAAAAAUUAAAAAUCAAAGAAAACGUCUGGCCAGGGCCAGGAUAAGACAAACAGGAACACUUCAGCAACAGAGGAUUGAGCAUCA
# B21: chr14:89327608:89327609:+_ENSG00000165533_ENST00000346301|hu_mus|motif|central (ssRNA)
# RNA: GGGAGUUCUACAGUCCGACGAUCUUCCUCAUAGAUCCUGGCAAUUCCACAAAGCAGGGUCACCUCUCCUGGAAACUUAUCGGAGCCUUGUUUAAAUAGAUUUAAAGCAGUCACAGGUUGAUCCAAUAUGAUAUAAACUUUUGCCAACAGAGGAUUGAGCAUCA
# B22: chr1:184663225:184663226:-_ENSG00000116406_ENST00000318130|hu_hu|motif|central (ssRNA)
# RNA: GGGAGUUCUACAGUCCGACGAUCACCAACAGAUUGUUUAGCAAGUCAUAGCUCAUCCUUCUCCAUCAUUUCAAAUGCUUCGGUAUCUUCAUUCCAGUCUGCUAAUAUGGAGUCUAUAGGCUGGACCUUUUUACCCCAGCUAACCAACAGAGGAUUGAGCAUCA
# Biological target: T1, UNK ZnF1-3
# Test: nsRBNS (natural sequence RNA bind-n-seq); RBNS binding buffer (assumed for nsRBNS): 25 mM Tris pH 7.5, 150 mM KCl, 3 mM MgCl2, 0.01% Triton X-100, 500 ug/ml BSA, 20 U/ml SUPERase-In, 4 C; UNK is unkempt and MSI1 is Musashi-1; names of the RNAs are library labels; protein concentration not given here; high values mean tight binding
row,Binder,binding signal [enrichment R]
1,B1,0.994
2,B2,0.909
3,B3,0.932
4,B4,0.878
5,B5,1.46
6,B6,0.708
7,B7,0.745
8,B8,0.721
9,B9,1.24
10,B10,0.766
11,B11,0.572
12,B12,0.626
13,B13,2.11
14,B14,1.49
15,B15,0.98
16,B16,1.19
17,B17,0.859
18,B18,0.855
19,B19,0.858
20,B20,3.22
21,B21,1.33
22,B22,1.07
